# Some of the results follow.
# Key:
# Experiment in all cases: glycan array binding signal (z-score within array); higher = stronger binding
# Details in all cases: glycan notation: IUPAC condensed, linker removed
# Fuc(a1-2)[Gal(a1-3)]Gal = biological target: Fuc(a1-2)[Gal(a1-3)]Gal
# In short: (§1)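 Arrays were curated from the Consortium for Functional Glycomics database, 3228 in total, and kept only where the protein sequence was available. Binding is expressed as a within-array Z-score. This score was averaged across arrays of the same protein sequence at different concentrations or buffers and across linkers, and negative values can be read as non-binding.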
# [1] = biological target: Fuc(a1-2)[Gal(a1-3)]Gal(b1-3)GlcNAc
# In short: as §1
# [2] = biological target: Fuc(a1-2)[Gal(a1-3)]Gal(b1-3)GlcNAc(b1-2)Man(a1-3)[Fuc(a1-2)[Gal(a1-3)]Gal(b1-3)GlcNAc(b1-2)Man(a1-6)]Man(b1-4)GlcNAc(b1-4)GlcNAc
# In short: as §1
# [3] = biological target: Fuc(a1-2)[Gal(a1-3)]Gal(b1-4)Glc
# In short: as §1
# [4] = biological target: Fuc(a1-2)[Gal(a1-3)]Gal(b1-4)GlcNAc
# In short: as §1
# [5] = biological target: Fuc(a1-2)[Gal(a1-3)]Gal(b1-4)GlcNAc(b1-2)Man(a1-3)[Fuc(a1-2)[Gal(a1-3)]Gal(b1-4)GlcNAc(b1-2)Man(a1-6)]Man(b1-4)GlcNAc(b1-4)GlcNAc
# In short: as §1
# [6] = biological target: Fuc(a1-2)[Gal(a1-3)]Gal(b1-4)[Fuc(a1-3)]GlcNAc
# In short: as §1
# [7] = biological target: Fuc(a1-2)[Gal(a1-4)]Gal(b1-4)GlcNAc
# In short: as §1
# [8] = biological target: Fuc(a1-2)[GalNAc(a1-3)]Gal
# In short: as §1
# [9] = biological target: Fuc(a1-2)[GalNAc(a1-3)]Gal(b1-3)GalNAc(a1-3)[Fuc(a1-2)]Gal(b1-4)GlcNAc
# In short: as §1
# [10] = biological target: Fuc(a1-2)[GalNAc(a1-3)]Gal(b1-3)GlcNAc
# In short: as §1
# [11] = biological target: Fuc(a1-2)[GalNAc(a1-3)]Gal(b1-3)GlcNAc(b1-2)Man(a1-3)[Fuc(a1-2)[GalNAc(a1-3)]Gal(b1-3)GlcNAc(b1-2)Man(a1-6)]Man(b1-4)GlcNAc(b1-4)GlcNAc
# In short: as §1
# [12] = biological target: Fuc(a1-2)[GalNAc(a1-3)]Gal(b1-4)Glc
# In short: as §1
# [13] = biological target: Fuc(a1-2)[GalNAc(a1-3)]Gal(b1-4)GlcNAc
# In short: as §1
# [14] = biological target: Fuc(a1-2)[GalNAc(a1-3)]Gal(b1-4)GlcNAc(b1-2)Man(a1-3)[Fuc(a1-2)[GalNAc(a1-3)]Gal(b1-4)GlcNAc(b1-2)Man(a1-6)]Man(b1-4)GlcNAc(b1-4)GlcNAc
# In short: as §1
# [15] = biological target: Fuc(a1-2)[GalNAc(a1-3)]Gal(b1-4)GlcNAc(b1-3)Gal(b1-4)GlcNAc
# In short: as §1
# [16] = biological target: Fuc(a1-2)[GalNAc(a1-3)]Gal(b1-4)GlcNAc(b1-3)Gal(b1-4)GlcNAc(b1-3)Gal(b1-4)GlcNAc
# In short: as §1
# [17] = biological target: Fuc(a1-2)[GalNAc(a1-3)]Gal(b1-4)[Fuc(a1-3)]GlcNAc
# In short: as §1
# [18] = biological target: Fuc(a1-2)[GalNAc(a1-4)]Gal(b1-4)GlcNAc
# In short: as §1
# [19] = biological target: Fuc(a1-2)[GalNAc(b1-3)]Gal
# In short: as §1
# Fuc(a1-3)GlcNAc = biological target: Fuc(a1-3)GlcNAc
# In short: as §1
# [20] = biological target: Fuc(a1-3)[Gal(b1-4)]Glc6S
# In short: as §1
# [21] = biological target: Fuc(a1-3)[Gal(b1-4)]GlcNAc
# In short: as §1
# [22] = biological target: Fuc(a1-3)[Gal(b1-4)]GlcNAc(b1-2)Man(a1-3)[Fuc(a1-3)[Gal(b1-4)]GlcNAc(b1-2)Man(a1-6)]Man(b1-4)GlcNAc(b1-4)GlcNAc
# In short: as §1
# [23] = biological target: Fuc(a1-3)[Gal(b1-4)]GlcNAc(b1-3)Gal(b1-3)[Fuc(a1-4)]GlcNAc
# In short: as §1
# [24] = biological target: Fuc(a1-3)[Gal(b1-4)]GlcNAc(b1-3)GalNAc
# In short: as §1
# [25] = biological target: Fuc(a1-3)[Gal(b1-4)]GlcNAc(b1-4)Gal(b1-4)[Fuc(a1-3)]GlcNAc
# In short: as §1
# [26] = biological target: Fuc(a1-3)[Gal(b1-4)]GlcNAc(b1-4)Gal(b1-4)[Fuc(a1-3)]GlcNAc(b1-4)Gal(b1-4)[Fuc(a1-3)]GlcNAc
# In short: as §1
# [27] = biological target: Fuc(a1-3)[Gal(b1-4)]GlcNAc(b1-6)[Gal(b1-3)GlcNAc(b1-3)]Gal(b1-4)Glc
# In short: as §1
# [28] = biological target: Fuc(a1-3)[Gal(b1-4)]GlcNAc6S
# In short: as §1
# [29] = biological target: Fuc(a1-3)[Gal3S(b1-4)]GlcNAc
# In short: as §1
# [30] = biological target: Fuc(a1-3)[Gal3S(b1-4)]GlcNAc6S
# In short: as §1
# [31] = biological target: Fuc(a1-3)[GalNAc(b1-4)]GlcNAc
# In short: as §1
# Fuc(a1-4)GlcNAc = biological target: Fuc(a1-4)GlcNAc
# In short: as §1
# Fuc(b1-3)GlcNAc = biological target: Fuc(b1-3)GlcNAc
# In short: as §1
# Gal(a1-2)Gal = biological target: Gal(a1-2)Gal
# In short: as §1
# Gal(a1-3)Gal = biological target: Gal(a1-3)Gal
# In short: as §1
binder,measurement,setting,value
"SLP (Clostridium difficile), Q183M8 (protein) MATTGTQGYTVVKNDWKKAVKQLQDGLKDNSIGKITVSFNDGVVGEVAPKSANKKADRDAAAEKLYNLVNTQLDKLGDGDYVDFSVDYNLENKIITNQADAEAIVTKLNSLNEKTLIDIATKDTFGMVSKTQDSEGKNVAATKALKVKDVATFGLKSGGSEDTGYVVEMKAGAVEDKYGKVGDSTAGIAINLPSTGLEYAGKGTTIDFNKTLKVDVTGGSTPSAVAVSGFVTKDDTDLAKSGTINVRVINAKEESIDIDASSYTSAENLAKRYVFDPDEISEAYKAIVALQNDGIESNLVQLVNGKYQVIFYPEGKRLETKSLEHHHHHH",glycan array binding signal (z-score),Fuc(a1-2)[Gal(a1-3)]Gal,-0.192
same,glycan array binding signal (z-score),[1],-0.187
same,glycan array binding signal (z-score),[2],-0.152
same,glycan array binding signal (z-score),[3],-0.196
same,glycan array binding signal (z-score),[4],-0.186
same,glycan array binding signal (z-score),[5],-0.175
same,glycan array binding signal (z-score),[6],-0.093
same,glycan array binding signal (z-score),[7],-0.135
same,glycan array binding signal (z-score),[8],-0.178
same,glycan array binding signal (z-score),[9],-0.198
same,glycan array binding signal (z-score),[10],-0.175
same,glycan array binding signal (z-score),[11],-0.152
same,glycan array binding signal (z-score),[12],-0.129
same,glycan array binding signal (z-score),[13],-0.19
same,glycan array binding signal (z-score),[14],-0.156
same,glycan array binding signal (z-score),[15],-0.209
same,glycan array binding signal (z-score),[16],-0.15
same,glycan array binding signal (z-score),[17],-0.147
same,glycan array binding signal (z-score),[18],-0.179
same,glycan array binding signal (z-score),[19],-0.158
same,glycan array binding signal (z-score),Fuc(a1-3)GlcNAc,-0.168
same,glycan array binding signal (z-score),[20],-0.171
same,glycan array binding signal (z-score),[21],-0.151
same,glycan array binding signal (z-score),[22],-0.171
same,glycan array binding signal (z-score),[23],-0.175
same,glycan array binding signal (z-score),[24],-0.115
same,glycan array binding signal (z-score),[25],-0.064
same,glycan array binding signal (z-score),[26],-0.187
same,glycan array binding signal (z-score),[27],-0.171
same,glycan array binding signal (z-score),[28],-0.143
same,glycan array binding signal (z-score),[29],-0.151
same,glycan array binding signal (z-score),[30],-0.026
same,glycan array binding signal (z-score),[31],-0.178
same,glycan array binding signal (z-score),Fuc(a1-4)GlcNAc,-0.158
same,glycan array binding signal (z-score),Fuc(b1-3)GlcNAc,-0.167
same,glycan array binding signal (z-score),Gal(a1-2)Gal,-0.157
same,glycan array binding signal (z-score),Gal(a1-3)Gal,-0.209

# — the supplement of paper PMC8728848
